Reference: the supplement of paper PMC12217912
The list shows a part of the results. The full chains were built here from the parent and the listed change. Values near 0.05 are background.

B1: TEV protease; numbered along this chain (parent)
chain: MGESLFKGPRDYNPISSSICHLTNESDGHTTSLYGIGFGPFIITNKHLFRRNNGTLVVQSLHGVFKVKDTTTLQQHLVDGRDMIIIRMPKDFPPFPQKLKFREPQREERICLVTTNFQTKSMSSMVSDTSCTFPSGDGIFWKHWIQTKDGQCGSPLVSTRDGFIVGIHSASNFTNTNNYFTSVPKNFMELLTNQEAQQWVSGWRLNADSVLWGGHKVFMVKPEEPFQPVKEATQL

Variants of: B1
Assay: raw area under fraction-flipped curve 0-4 h after induction (AUC4h, not background-subtracted), DNA-recorder readout of cleavage of the substrate (dimensionless); higher = more cleavage of the substrate by the protease variant
Conditions: temperature: 34 °C; time window: 0-4 h after rhamnose induction
Experimental: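 In vivo DNA recorder in E. coli TOP10(DE3) ΔrhaA at 34 °C. Each TEVp single-site mutant (parent TEVp 0) is paired with a single-site variant of the 7-mer TEVs (canonical ENLYFQ|S). The substrate sits between flexible linkers in a Bxb1-sfGFP-TEVs-SsrA fusion, so cleavage stabilises Bxb1 and speeds flipping of a recombination array, read by NGS. The value is the raw area under the fraction-flipped curve over 0-4 h after rhamnose induction (AUC4h), with ≥20 reads per time point. It is not background-subtracted; inactive controls average about 0.047.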
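Further: Bxb1 expression induced with 0.2% (w/v) L-rhamnose at OD600 near 0.5, cultures sampled hourly, flipped fraction per protease–substrate barcode pair counted by paired-end Illumina sequencing.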

Variant | area with substrate ENLYFQA | area with substrate ENLYFQD | area with substrate ENLYFQH | area with substrate ENLYFQI | area with substrate ENLYFQK | area with substrate ENLYFQL | area with substrate ENLYFQM | area with substrate ENLYFQP | area with substrate ENLYFQR | area with substrate ENLYFQS | area with substrate ENLYFQV | area with substrate ENLYFQW | area with substrate ENLYFQY | area with substrate ENLYFQT | area with substrate ENLYFQF | area with substrate ENLYFQG | area with substrate ENLYFQC | area with substrate ENLYFQE | area with substrate ENLYFQN | area with substrate ENLYFQQ
I167G | 0.0693 | 0.0437 | 0.054 | 0.0576 | 0.0606 | 0.0615 | 0.0529 | 0.0373 | 0.0553 | 0.0665 | 0.0641 | 0.0464 | 0.0517 | – | – | – | – | – | – | –
I167E | 0.052 | – | – | – | – | – | – | 0.0578 | – | 0.0515 | 0.0731 | – | – | 0.0465 | – | – | – | – | – | –
Y179M | 0.0469 | – | – | 0.0672 | 0.0749 | 0.0566 | – | 0.0538 | 0.0562 | 0.0647 | 0.0489 | 0.0596 | – | – | 0.0398 | 0.0795 | – | – | – | –
N172C | 0.0701 | 0.0549 | – | – | – | 0.063 | 0.0606 | – | 0.05 | 0.0732 | 0.0553 | 0.0593 | 0.0552 | 0.0704 | – | 0.0771 | 0.0708 | 0.0552 | 0.0658 | –
P184K | 0.0839 | – | 0.0766 | 0.0438 | – | 0.0755 | 0.0678 | – | 0.0603 | 0.073 | – | 0.0645 | – | 0.0612 | – | 0.0859 | – | – | – | –
P184A | 0.0754 | 0.0578 | 0.0537 | 0.0592 | 0.0652 | – | 0.0736 | – | 0.0789 | 0.0857 | 0.0365 | 0.0559 | 0.0809 | 0.0573 | 0.0697 | 0.103 | 0.0824 | 0.0436 | 0.0661 | –
P184Q | 0.0966 | – | – | 0.0508 | – | 0.0611 | 0.0742 | – | 0.0479 | 0.0785 | – | 0.0591 | 0.0538 | 0.0582 | – | 0.0659 | 0.101 | – | 0.0791 | 0.0527
R160Q | 0.0787 | 0.0791 | 0.0554 | 0.0565 | 0.0586 | 0.0627 | 0.101 | 0.0573 | – | 0.103 | 0.0683 | – | 0.0824 | – | 0.0754 | 0.0858 | 0.112 | – | 0.0748 | –
T192R | 0.0934 | 0.0624 | 0.0544 | 0.0557 | – | 0.0586 | 0.085 | 0.063 | 0.063 | 0.0856 | 0.0637 | 0.0532 | 0.0584 | 0.0647 | 0.101 | 0.0865 | 0.113 | – | 0.0744 | 0.0867
T192S | 0.089 | – | – | 0.0581 | 0.0613 | 0.0589 | 0.0754 | 0.0629 | 0.0637 | 0.0944 | – | 0.0596 | 0.0837 | 0.0683 | – | – | 0.103 | – | 0.0723 | 0.0679
N186V | 0.0886 | – | 0.0854 | – | 0.0599 | 0.0526 | 0.0787 | 0.0739 | 0.0604 | 0.0867 | 0.063 | – | – | – | – | – | – | – | 0.0619 | –
A207S | 0.122 | 0.0974 | 0.0888 | 0.0414 | – | 0.0547 | 0.108 | 0.0508 | 0.0631 | 0.109 | – | 0.0817 | 0.0669 | 0.0678 | 0.0804 | 0.0987 | – | 0.0739 | 0.0707 | –
T174Y | 0.108 | 0.0792 | – | 0.0632 | 0.0741 | – | 0.0735 | – | – | 0.0976 | 0.0664 | – | 0.0722 | – | – | 0.111 | 0.121 | – | 0.1 | –
T174R | 0.0572 | 0.0661 | 0.0866 | 0.0529 | 0.0667 | – | 0.0626 | 0.0573 | 0.0631 | 0.0887 | 0.0684 | 0.0501 | – | 0.059 | – | – | 0.0856 | – | 0.0588 | –
T174A | 0.0772 | – | – | 0.0838 | 0.0999 | 0.0445 | – | – | – | 0.0993 | – | – | – | – | – | – | 0.11 | – | 0.0766 | –
F187P | 0.0396 | – | 0.0496 | – | 0.055 | – | – | – | 0.024 | 0.0586 | 0.0567 | – | 0.038 | 0.0647 | – | – | 0.0524 | – | 0.0413 | –
N206F | 0.11 | 0.0888 | 0.012 | 0.0639 | 0.0666 | 0.0649 | 0.0694 | 0.053 | – | 0.0815 | 0.0459 | 0.059 | 0.0926 | 0.0618 | 0.0555 | – | – | – | 0.0617 | –
V165C | 0.0848 | – | – | 0.0551 | 0.0607 | 0.0615 | – | – | 0.0563 | 0.0928 | 0.0669 | – | – | – | – | 0.101 | 0.0737 | 0.06 | 0.0558 | –
V200F | 0.0639 | 0.0603 | – | – | – | – | – | – | – | 0.069 | 0.0678 | – | 0.073 | 0.0889 | – | – | 0.0575 | – | 0.0637 | –
H168T | 0.04 | – | 0.0549 | 0.0624 | – | 0.0601 | 0.0529 | – | 0.0705 | 0.0611 | – | 0.0461 | – | – | – | – | 0.0605 | – | 0.0593 | –
H168V | 0.0581 | – | 0.0586 | – | 0.057 | 0.058 | 0.0879 | 0.0545 | 0.0546 | 0.0614 | 0.0512 | 0.0705 | – | 0.0692 | 0.0526 | 0.0631 | 0.0751 | – | – | 0.0571
V183K | 0.0428 | 0.0594 | – | 0.0527 | 0.0552 | 0.0384 | 0.0596 | 0.0606 | 0.057 | 0.0549 | 0.024 | 0.0571 | – | 0.047 | 0.0446 | 0.0556 | 0.0685 | – | 0.0593 | –
R204I | 0.0789 | 0.0717 | 0.079 | 0.0648 | 0.0654 | 0.0735 | 0.0862 | 0.0514 | 0.0615 | 0.108 | 0.0851 | 0.0706 | 0.0789 | 0.0613 | 0.0656 | 0.0931 | 0.117 | – | 0.0728 | 0.0986
T176P | 0.0523 | 0.0459 | 0.0628 | – | 0.0527 | 0.044 | 0.0632 | – | 0.0558 | 0.0626 | – | – | – | 0.0655 | 0.0563 | 0.0625 | 0.0805 | – | 0.0576 | –
T176E | 0.0795 | 0.0736 | 0.0677 | – | 0.0497 | 0.0419 | – | 0.0638 | 0.0495 | 0.0778 | 0.0582 | 0.0687 | – | – | – | 0.0666 | 0.0958 | – | 0.0701 | 0.0578
T176H | 0.0777 | 0.0823 | – | 0.0552 | – | 0.0612 | 0.0627 | – | 0.0549 | 0.0748 | – | – | 0.0574 | 0.0638 | – | – | – | – | – | 0.0562
Q194G | 0.0917 | 0.0791 | 0.0643 | 0.0545 | 0.0348 | 0.048 | 0.124 | 0.0542 | 0.0633 | 0.103 | 0.0624 | 0.0669 | – | – | 0.0887 | 0.0984 | 0.127 | 0.0639 | 0.0815 | –
